# Experimental data published in PubChem BioAssay AID488969 (Vanderbilt High Throughput Screening Facility, 2010).
# The full ranking holds about 110,000 compounds; the median of “z-score” is about -0.1, and the highest 2% start at about 2. The list shows a part of the results.
# Biological target: Metabotropic glutamate receptor 8 (Rattus norvegicus) (UniProt P70579)
# Assay: mGluR8 Gi/Go-coupled signaling modulation – cell-based, rat, thallium flux, HTS, primary screen (AID 488969)
# Conditions: HEK293 rat mGluR8, GIRK (G protein-gated inwardly rectifying potassium channel) thallium flux, FluoZin2; at 10 µM; stronger effect = higher value; submaximal glutamate (EC20) added with thallium
# Chain of UniProt P70579 (P70579 whole entry, looked up): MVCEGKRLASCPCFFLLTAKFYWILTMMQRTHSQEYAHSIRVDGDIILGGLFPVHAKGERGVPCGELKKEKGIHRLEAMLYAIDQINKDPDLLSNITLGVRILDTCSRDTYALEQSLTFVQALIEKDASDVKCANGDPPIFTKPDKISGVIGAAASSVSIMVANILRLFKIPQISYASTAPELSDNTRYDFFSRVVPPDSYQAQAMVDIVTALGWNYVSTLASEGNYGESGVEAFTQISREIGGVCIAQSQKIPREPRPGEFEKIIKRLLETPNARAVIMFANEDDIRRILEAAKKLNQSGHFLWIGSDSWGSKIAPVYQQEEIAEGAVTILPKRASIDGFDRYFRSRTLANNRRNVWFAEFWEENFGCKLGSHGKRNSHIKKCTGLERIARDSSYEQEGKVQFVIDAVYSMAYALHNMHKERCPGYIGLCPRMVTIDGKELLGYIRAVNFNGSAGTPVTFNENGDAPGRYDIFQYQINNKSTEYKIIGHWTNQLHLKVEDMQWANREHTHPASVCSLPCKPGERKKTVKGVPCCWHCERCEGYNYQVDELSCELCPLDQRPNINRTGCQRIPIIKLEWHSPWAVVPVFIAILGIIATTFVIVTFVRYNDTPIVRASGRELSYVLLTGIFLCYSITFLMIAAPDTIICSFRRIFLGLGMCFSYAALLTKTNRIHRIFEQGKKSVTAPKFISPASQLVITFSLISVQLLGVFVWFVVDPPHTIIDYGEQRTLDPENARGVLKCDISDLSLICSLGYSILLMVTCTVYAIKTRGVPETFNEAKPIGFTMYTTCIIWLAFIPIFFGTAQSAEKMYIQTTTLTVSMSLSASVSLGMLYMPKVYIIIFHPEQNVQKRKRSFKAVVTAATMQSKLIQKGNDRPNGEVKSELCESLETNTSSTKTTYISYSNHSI
row,SMILES,z-score
1,O=C1NN(c2ccc(F)c(Cl)c2)C(=O)/C1=C\c1cccc(OC(=O)c2cccs2)c1,0.335
